# Laboratory results published in the supplement of paper PMC4604168 (melanoma cell lines).
# The list shows a part of the results. Single values are uncertain, as repeats are few or missing.
# Assays:
# Test in all cases: cell count relative to DMSO control; melanoma cells; higher = more viable cells
# Settings in all cases: library dose: standard library concentration; 72 h
# G361 = system: G361
# IPC-298 = system: IPC-298
# IST-MEL1 = system: IST-MEL1
# LB2518-MEL = system: LB2518-MEL
# LOXIMVI = system: LOXIMVI
# MEL-HO = system: MEL-HO
# MZ2-MEL = system: MZ2-MEL
# MeWo = system: MeWo
# RPMI7951 = system: RPMI7951
# RVH-421 = system: RVH-421
# SkMel28 = system: SkMel28
# SkMel2 = system: SkMel2
# SkMel30 = system: SkMel30
# SkMel5 = system: SkMel5
# UACC257 = system: UACC257
# UACC62 = system: UACC62
# WM115 = system: WM115
# WM1716 = system: WM1716
# WM1745 = system: WM1745
# WM3526 = system: WM3526
# 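Also: cells treated in 1,536-well plates, then fixed and DAPI-stained, with nuclei counted from automated high-throughput microscope images.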
SMILES,cell count (G361) [%],cell count (IPC-298) [%],cell count (IST-MEL1) [%],cell count (LB2518-MEL) [%],cell count (LOXIMVI) [%],cell count (MEL-HO) [%],cell count (MZ2-MEL) [%],cell count (MeWo) [%],cell count (RPMI7951) [%],cell count (RVH-421) [%],cell count (SkMel28) [%],cell count (SkMel2) [%],cell count (SkMel30) [%],cell count (SkMel5) [%],cell count (UACC257) [%],cell count (UACC62) [%],cell count (WM115) [%],cell count (WM1716) [%],cell count (WM1745) [%],cell count (WM3526) [%]
"O=C(CCCCCCC(=O)Nc1ccccc1)NO [vorinostat] + Cc1cc(N2CCOCC2)cc2[nH]c(-c3c(NC[C@@H](O)c4cccc(Cl)c4)cc[nH]c3=O)nc12 [BMS536924] (first compound 0.4 µM, partner dose 1 µM)",52.9,78.2,56.5,84.5,65.6,75,104,57.7,65.6,99.2,55,77.9,71.9,43.7,66.6,69.6,80.1,96,50.8,65.8
"Cn1c(Nc2ccc(C(F)(F)F)cc2)nc2cc(Oc3ccnc(-c4ncc(C(F)(F)F)[nH]4)c3)ccc21 + CC(C)(C)c1cnc(CSc2cnc(NC(=O)C3CCNCC3)s2)o1 [SNS-032] (first compound 0.4 µM, partner dose 0.05 µM)",20.2,47.7,60.4,22.8,54.8,62.4,45,64.8,23.6,46.1,26.7,33.4,69.3,23.5,69.5,52.9,25.6,58.1,49.1,33.4
"C#Cc1cccc(Nc2ncnc3cc(OCCOC)c(OCCOC)cc23)c1 [erlotinib] + C[C@]1(c2nc3c(C(N)=O)cccc3[nH]2)CCCN1 [Veliparib] (first compound 4 µM, partner dose 7 µM)",60.9,57.3,79.9,60.3,73.8,70.2,79.2,63.9,58.4,65,45.5,88.6,47.3,43.7,84.2,29.7,68.1,74.3,43.3,63.2
"COCC[n+]1c2c(n(Cc3cnccn3)c1C)C(=O)c1ccccc1C2=O + Cn1cncc1[C@@](N)(c1ccc(Cl)cc1)c1ccc2c(c1)c(-c1cccc(Cl)c1)cc(=O)n2C [tipifarnib] (first compound 0.002 µM, partner dose 0.05 µM)",71.9,50,90.4,23.6,52.2,80.6,40.3,62.2,37.5,51.2,34.4,44.5,80.3,47.6,28.4,78.2,64.9,59.6,117,47.4
"Cn1c(Nc2ccc(C(F)(F)F)cc2)nc2cc(Oc3ccnc(-c4ncc(C(F)(F)F)[nH]4)c3)ccc21 + O=C(Nc1cccc(Cl)c1)Nc1ncc(CCNc2ncnc3ccsc23)s1 [SNS314] (first compound 0.4 µM, partner dose 0.004 µM)",27.5,43.7,51.3,36.4,55.8,56,55.3,63,39.2,51.1,24.5,45.4,70.5,37,67.1,58.9,25.7,56.7,49.2,34.3
"COCC[n+]1c2c(n(Cc3cnccn3)c1C)C(=O)c1ccccc1C2=O + Nc1cccc2c1CN(C1CCC(=O)NC1=O)C2=O [lenalidomide] (first compound 0.002 µM, partner dose 5 µM)",66.8,49.4,38,25.9,51.3,69.9,26.6,40.3,33.7,74.1,33.5,29.6,71.8,37,20.3,61.8,70.4,65,86.6,36.2
"OCc1c[nH]c2ccccc12 [Indole-3-carbinol] + O=C(CCCCCCC(=O)Nc1ccccc1)NO [vorinostat] (first compound 4 µM, partner dose 0.4 µM)",74.8,86.3,87.4,90.1,67.7,88.8,110,85.2,64.2,104,49.2,92.8,101,90.6,76.4,83.3,85.4,115,73.2,85
"O=C(CCCCCCC(=O)Nc1ccccc1)NO [vorinostat] + Cn1cc(/C=C2\C(=O)Nc3cccnc32)c2ccccc21 [GW441756] (first compound 0.4 µM, partner dose 2 µM)",90.9,86.5,110,87.9,76.6,98.1,90.4,75.7,80,103,70.1,101,76.8,60.9,76.2,62.4,86.7,73.7,95.7,57.5
"C#Cc1cccc(Nc2ncnc3cc(OCCOC)c(OCCOC)cc23)c1 [erlotinib] + Nc1cccc2c1CN(C1CCC(=O)NC1=O)C2=O [lenalidomide] (first compound 4 µM, partner dose 5 µM)",81.8,74.6,94.8,83.1,97.4,81.4,83.8,83.7,115,83.6,75.5,104,87.9,79.9,79.4,50.2,90,91.6,61.8,81.5
"Cn1c(Nc2ccc(C(F)(F)F)cc2)nc2cc(Oc3ccnc(-c4ncc(C(F)(F)F)[nH]4)c3)ccc21 + OCCn1cc(-c2cnc3nnn(Cc4ccc5ncccc5c4)c3n2)cn1 [PF04217903] (first compound 0.4 µM, partner dose 5 µM)",31.9,48.3,73.7,41.9,65.4,69,82.4,81.2,59.4,52.3,51.2,61.9,74.6,37.9,71.8,65.4,58.5,77.6,68.6,45.6
"COCC[n+]1c2c(n(Cc3cnccn3)c1C)C(=O)c1ccccc1C2=O + NCC(=O)Nc1ccc(-n2nc(C(F)(F)F)cc2-c2ccc3c(ccc4ccccc43)c2)cc1 [OSU03012] (first compound 0.002 µM, partner dose 5 µM)",75.3,47.3,36.6,33.5,56.3,78.8,39.6,59,49.9,78.8,17.3,22.3,45.5,34.2,41.9,53.9,55.5,64.3,69.6,28.9
"COCC[n+]1c2c(n(Cc3cnccn3)c1C)C(=O)c1ccccc1C2=O + CN(NC(=O)CC(=O)NN(C)C(=S)c1ccccc1)C(=S)c1ccccc1 [STA4783] (first compound 0.002 µM, partner dose 0.03 µM)",21.4,33.6,18.3,9.04,43,69.3,31.8,13.8,30.7,58.5,19.2,29.2,62.2,22.6,35.6,66.1,22.9,38.6,24.9,32.8
"Nc1cccc2c1CN(C1CCC(=O)NC1=O)C2=O (stereo not given) [lenalidomide] + Oc1nc(-c2ccc(C(F)(F)F)cc2)nc2c1CSCC2 [XAV939] (first compound 5 µM, partner dose 10 µM)",79.1,84.6,98.8,78.5,85.3,86.2,85.7,83.8,95.6,84.4,47.5,68.5,89.2,62.8,90.4,90,92.4,84.9,63.9,98.3
"Nc1cccc2c1CN(C1CCC(=O)NC1=O)C2=O (stereo not given) [lenalidomide] + Cn1nnc2c(C(N)=O)ncn2c1=O [temozolomide] (first compound 5 µM, partner dose 10 µM)",97.6,107,85.3,106,93.5,105,111,120,81.5,145,40.8,108,70.5,102,99,55.5,85.9,64.2,82.3,103
"Nc1cccc2c1CN(C1CCC(=O)NC1=O)C2=O (stereo not given) [lenalidomide] + CN(C)S(=O)(=O)c1ccc2c(c1)/C(=C/c1cc3c([nH]1)CCCC3)C(=O)N2 [SU6656] (first compound 5 µM, partner dose 2 µM)",68.5,89.8,99.5,75.8,92.6,101,95.4,78.3,66.8,76.1,63.1,84.5,88.1,94.2,79.4,83.9,64.4,64.6,75.8,79.6
"Nc1cccc2c1CN(C1CCC(=O)NC1=O)C2=O (stereo not given) [lenalidomide] + C[C@]1(c2nc3c(C(N)=O)cccc3[nH]2)CCCN1 [Veliparib] (first compound 5 µM, partner dose 7 µM)",113,107,87.5,95.7,62,93.2,96.3,96.8,85.8,90.8,102,94.5,117,91.8,97,63.9,88.7,105,91.9,101
"COCC[n+]1c2c(n(Cc3cnccn3)c1C)C(=O)c1ccccc1C2=O + Cn1cc(/C=C2\C(=O)Nc3cccnc32)c2ccccc21 [GW441756] (first compound 0.002 µM, partner dose 2 µM)",98.9,59.8,53.1,45.2,102,89.8,18.8,89.5,43.2,88.7,71.1,60.7,61.1,44.9,24.9,90.5,101,86,77,69.5
"C#Cc1cccc(Nc2ncnc3cc(OCCOC)c(OCCOC)cc23)c1 [erlotinib] + Cc1ccc(NC(=O)c2cccc(N(C)C)c2)cc1NC(=O)c1ccc(O)cc1 [ZM336372] (first compound 4 µM, partner dose 10 µM)",68.6,88.2,88.1,48.8,68.2,80.7,91.5,77.5,66.3,74.1,79.5,93.3,94.8,62.6,80.3,60,73.1,110,53.2,85
